Measurements published in the supplement of paper PMC3334620.
Over roughly 33,000 sequences, “E-score (-0.5 to 0.5)” has its median near -0.056; the highest 2% begin near 0.38. The list shows a part of the results.

target: Stb4 (UniProt P50104); experiment: PBM E-score (8-mer binding enrichment) (E-score (-0.5 to 0.5)); higher = stronger / more preferred TF binding; most listed sequences are background and not binding sites; settings: protein concentration: 200 nM; construct: GST-DNA-binding domain
Outline: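 E-scores (a modified Wilcoxon-Mann-Whitney statistic) were assigned by the Universal PBM Analysis Suite to every ungapped eight-base word pooled with its reverse complement. The input came from universal all-10-mer Agilent arrays made double-stranded by primer extension and probed with GST-tagged yeast transcription factors at about 100-200 nM. Fluorescent anti-GST detected bound protein, and masliner normalised the scans.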

Sequence | PBM E-score
AGTGGACC | -0.234
AATGGGGC | -0.232
CTGTAACC | 0.0901
CAGGGATG | -0.129
CGATTTAA | -0.122
CATTAAAC | -0.181
GCTCTCCC | 0.0616
AAAATATT | 0.119
CGCCAGCG | -0.0289
AAGGTTTA | -0.25
TTGTGAAA | -0.187
ACATGATC | -0.0719
GAATTGCC | 0.189
ATATTCCC | 0.32
GCAAAGGA | 0.0013
ACATACCC | 0.146
ATCAACTA | -0.177
CAAGAGGA | -0.276
AAAGCAGA | -0.125
GACCAACC | -0.116
ATCTTCTA | 0.0919
AAGGGTCA | -0.166
ACGGAAGC | 0.337
CACCCTGC | -0.0927
GCATTCCC | 0.0931

Sequence | PBM E-score
TACCTCAA | -0.105
AGACCTCC | 0.00922
CAAGCATC | 0.0278
GTAAGTTA | -0.0587
ATCTGGTA | -0.113
ACGTACGC | -0.157
ACAAGGAC | -0.274
CGTTATTA | 0.0429
CTCGTCTC | -0.0768
AGGGAATA | 0.0561
ATGCATGG | -0.0186
TATATATA | 0.125
GAGAATCA | -0.0733
TATCCGCA | 0.408
GATGTCAA | -0.0424
ATTCCAGA | 0.0443
CATGGGGA | -0.132
CATGCTCC | -0.133
AGTGCGGG | 0.161
AGTACTAG | -0.119
CGACCAAG | -0.184
TGGAAAAA | -0.0066
AGAACAGA | 0.0282
CTTTTGAC | -0.167
CTCTTCAG | -0.229

Sequence | PBM E-score
GAAGTGGC | 0.0778
CCTACGGA | 0.144
GCCGTTTA | 0.0517
CGTTTGTA | 0.0503
ATGTTCAC | -0.1
AGGCGCTG | -0.0579
CCGACATC | 0.301
CGGTGAAC | 0.0945
ACGTCACA | -0.2
CAGCTAGG | -0.26
CACGTCTG | -0.203
CGATATAG | -0.0271
GCGGAACA | 0.335
GGGCGACC | -0.114
AAATACAC | -0.134
CAACTGCA | -0.243
ACCCTTAC | -0.188
CGATAAAA | 0.299
CCTCAGGC | -0.123
AACCTTGC | -0.151
CTTTCAAC | -0.047
AGGGTTAG | -0.308
CGGACTCC | 0.155
GTCGTCCA | -0.096
ACATATGA | -0.16

Sequence | PBM E-score
AAGACCGG | 0.113
CACGATCG | 0.0118
AATGGGAC | -0.211
GTGAGCAC | -0.115
CAGGTGCA | -0.175
CAAATCGG | 0.353
CAACATAA | -0.0466
AGCGCCCC | 0.0306
CTTTGTTA | -0.0279
CACGCTCG | 0.119
AGTGCAAA | -0.217
ACCCGTCA | 0.168
ATTATGAC | 0.0214
CGGGACCC | 0.318
CTTGAGGA | 0.0661
GTGTCGAA | -0.0811
CCACCACA | 0.00458
AACAAAGG | -0.118
CCGACTTA | 0.319
AGCAGGAG | -0.0806
ATTGTGTA | 0.0524
AGAGTCAG | -0.0492
AGTGGGTG | -0.0397
AACCCTGG | -0.176
CTTTTTGA | -0.151

Sequence | PBM E-score
CCTTGACA | -0.2
ACTTAGCC | -0.0828
CGCTGTTA | 0.0465
AATGTGTG | -0.0954
ACATATCT | -0.0348
CACACTTC | 0.0113
CCCGTCAA | 0.181
AGTAGACA | -0.035
CATTGCCG | 0.258
AAACAGCT | -0.0795
GAAGCAGA | -0.217
GAAGCCAC | 0.104
GATGAATA | 0.077
AGGTACGA | -0.0929
AACCTAAA | 0.099
AGATGATA | -0.0663
CAGCGCGC | -0.173
AACGACTC | -0.204
ACCGGCAG | 0.192
CTGGAAAC | -0.136
GCTACACA | -0.153
TAGAGCCA | -0.359
CATGAGTC | -0.171
AATGAATC | -0.0935
CACTTCTG | -0.238

Sequence | PBM E-score
GCTACGAC | -0.0399
AGCTGCTA | -0.221
CACTAATC | 0.123
CATTTTTA | 0.0281
AATCCTGA | -0.162
CATGTTCA | -0.345
CCCTTACA | -0.0902
CCGAGTGC | 0.372
CACGAATC | -0.0352
CGTATACA | -0.0455
ATCGTTCG | 0.0667
GAGCCCTA | -0.0185
ATTAGTAA | 0.076
GTTCTTGA | -0.19
GCGTCGAC | -0.155
CATCCATC | -0.115
CTACATTC | 0.0539
GGAAAACC | 0.151
GCCCGTCA | 0.157
CTATTCCC | 0.0798
ATTGGGAA | -0.108
GACGTTCA | -0.0896
GCGGCCCA | 0.0648
TGCTTTAA | -0.127
AGCTTTGC | 0.0466

Sequence | PBM E-score
AAGTCCCG | 0.362
AAATTGTC | 0.0348
ACGAGAAA | -0.0518
AAGTTAAT | -0.0994
ACATATCC | 0.0644
ACTGTTCC | 0.141
GAGCCTCC | -0.0185
TAGATGCA | -0.222
TGCGGAAA | 0.299
AGTCGCGG | 0.0578
CACTAGAG | -0.16
ACGTTACA | -0.325
TCTCGAAA | -0.251
CGGGCTAG | 0.136
GGTGGAAC | -0.148
AACAGCGG | 0.097
TACTCAAA | -0.108
CCGTGTTC | 0.236
CCAGCCTA | -0.221
ACCGATCA | 0.231
ACTTTGCA | -0.17
ATTGGTAC | -0.0858
